Experimental data as given in the supplement of paper PMC11417369.
The other results are listed elsewhere or left out.

Each sequence was assayed on PfSIP2 AP2 domain 1 (GST-tagged) (assay: gcPBM binding intensity (ln(normalized median fluorescence intensity)); higher = stronger DNA binding).
In short: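 An Agilent 4 × 180k array of primer-extended double-stranded 36-bp intergenic genomic probes, with negative controls, was incubated for 1 h with GST-tagged P. falciparum DNA-binding domains expressed in E. coli. Alexa488 anti-GST antibody detected bound protein, scanned at 488 nm. Binding intensity is the highest Masliner-normalised natural-log median intensity across replicate spots of either probe orientation.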

Row | Sequence | gcPBM binding intensity (ln)
1 | TGTAAAAAATTTAACACACACATATATATATATATA [CACACA_site2585] | 9.65
2 | ATTACAATATATACGTGTACATATTACCACCGCTAC [XGTACX_site2308] | 7.01
3 | TTATTTATAAACATATGTACTAATACATGATTAACA [XGTACX_site7645] | 7.04
4 | GACATATATATAAAATGTACATATATATTTACATAT [XGTACX_site7822] | 7.03
5 | TGATAATAAGCATACACACACACACTAGAAAAAAAA [CACACA_site4558] | 7.05
6 | TGTTCTTTATTTTATTGTACTTTTAAAATTCCTTTA [XGTACX_site8058] | 7.24
7 | AAAAAAAAAAGACATGCATACGCTAATTTTTAGTTG [TGCATGCA_site300] | 6.58
8 | ATATATTTTTAAAAAAATTAAGAATTTTACATCTCC [CACACA_negctrl_site1450] | 6.87
9 | TATTATAATAAGAAGTGTACGTGTTTTTATAAATAA [XGTACX_site575] | 7.38
10 | TATAAAAAAAACGAAAAAAAAAAAAAAAATACAGGA [TGCATGCA_negctrl_site585] | 6.9
11 | ATTATGTTTCTTTTTTTTTTTAAAGGATGTCTTTTT [CACACA_negctrl_site974] | 6.72
12 | TTTAAGCAAAAACACACACACATATATATATATATA [CACACA_site349] | 9.52
13 | TATAAATATATATACACACACATATATATTATATAT [CACACA_site596] | 7.18
14 | AAAAAATGATAATATACACACTTATGGGAGAGCGCA [CACACA_site5398] | 6.92
15 | AATATTAAACAAAATAAATATATAAAAAATAAATAA [GTGCAC_negctrl_site93] | 6.79
16 | AAGTTATATTTGTGTACACATAATTTTATACTAATA [CACACA_site5553] | 7.67
17 | TATTTAATACGGACTCATAAATCTTAATAAAAAAAA [CACACA_negctrl_site434] | 7
18 | TCCCTTTGTATATATATATAAATATATATATATATA [CACACA_negctrl_site157] | 9.18
19 | TTTATCGAATATAATAGTACATAAAAAAAAAAAAAA [XGTACX_site1734] | 7.17
20 | AGATTATATAAAAAAGTGCATATTTTCATTTTTTTT [GTGCAC_site9448] | 8.47
21 | CATTAAAATGGTAAATGTACATATCCATCTTCTCAC [XGTACX_site4636] | 6.94
22 | ACATTTTTTTTGTGAGTCTTTGCGGCATCAAAATTT [XGTACX_negctrl_site348] | 6.84

Row | Sequence | gcPBM binding intensity (ln)
23 | AAAAAAGAAAAAAACTGTACATGATAAATATTTATT [XGTACX_site7270] | 6.67
24 | TTATGAAGCAGACATGCATGTTATGGCTTAAATAAT [TGCATGCA_site492] | 6.89
25 | TTTTAAATAAAAAAATTAAATTAAAATATATAAAAA [XGTACX_negctrl_site490] | 6.66
26 | TGTTTATACAATATTTGTACATATATTTTTATTTTT [XGTACX_site4104] | 6.94
27 | CATTTTTACAACGTTGCACACTTCAAAAGGTTTACA [CACACA_site2760] | 7.53
28 | GATACTCTCTTTTAATGTACAAAATTTTAAAAATTA [XGTACX_site1781] | 7.58
29 | TATAAAAAAAAAAAAAGTACTTAAATATAAATAAAT [XGTACX_site5052] | 7.11
30 | GTTCCATGAGTATATACATGCATATATCTAGTTTAT [TGCATGCA_site388] | 7.13
31 | AATTAAAAAAAATACACACACACATACCCATATATA [CACACA_site5767] | 6.96
32 | AATGATATATTATAAACACACAAAGATGAATATATA [CACACA_site2818] | 6.85
33 | ATTCATTCATATGTTACACACACACCCACCCATAAA [CACACA_site9066] | 7.36
34 | TACCCTCGTATATATATACACACTAAAATACAGACA [CACACA_site4154] | 7.27
35 | AATTTATGTTTTAAAAGTACTTTTCTAATTTATAAA [XGTACX_site1593] | 6.93
36 | TATGTACAGACATATACACACCTCTATAATCTATAT [CACACA_site6482] | 7.09
37 | CTAAAGTAAATTTAAGCACACACAACGAATTTTTAT [CACACA_site8599] | 6.91
38 | TAAAATAAAAATTTATGTACACATAAAAAAACAAAA [XGTACX_site1112] | 7.15
39 | GAGAGTACCTATATTGCATGCAGACTTTTTAAATAT [TGCATGCA_site564] | 7.18
40 | TTTTTTTTTTTTTGTAGTACATTATGTATATTTTTA [XGTACX_site7810] | 6.97
41 | TTAATAAGAGAGCAATAGGTGGACTGTTTCTTTTAT [CACACA_negctrl_site1239] | 6.68
42 | GTTAAAATAATATGGTGTACAAATATATAAGTTCAT [XGTACX_site3262] | 7.12
43 | ATATATATATATAAAAGTACTTATTTTTATTTACAT [XGTACX_site4299] | 8.86
44 | ATTTATATTACCCTTGCATGTAGGTGCAATTTTTTT [TGCATGCA_site757] | 11

Row | Sequence | gcPBM binding intensity (ln)
45 | CATTTTGTTTTAAAGTGTACATTATGTAATATAAAA [XGTACX_site647] | 7.15
46 | TTTTTATAGGTAAAAACACACGCTAAAAATAATTAA [CACACA_site3731] | 6.95
47 | AATAAATATATATTCACACACAAACATATATATATA [CACACA_site4023] | 9.1
48 | TTTATAATTTATATCACACACATATATATATAGTAA [CACACA_site8] | 7.05
49 | AAATAAATAAATAAATAAACAAATATGTATAAATGG [XGTACX_negctrl_site153] | 7.13
50 | AGGTACTTTTTTAAAACACACATATAATAAATACAC [CACACA_site4730] | 7.62
51 | ATAAGATTAAACATTGCACACAGAAATATATTTTCT [CACACA_site8743] | 7
52 | TATATATATATATATTGTACATATGTAACCTTTTAA [XGTACX_site3914] | 9.26
53 | CCTATATAATATATTTGTACTTAATAATTAAAGTGT [XGTACX_site5151] | 7.16
54 | TTTTTTAGATTACATAAATATAAATATAAATATATA [GTGCAC_negctrl_site459] | 6.68
55 | TCAACTATCAATATAGTGCATTTTTTTTGGAAAACC [GTGCAC_site9927] | 8.5
56 | TATCAAAATTAGTATACACACAAAATTAATCAAATA [CACACA_site7117] | 6.94
57 | TTTAAATATATATATTGTACAAAAAAAAATAATAAA [XGTACX_site4759] | 6.93
58 | ATAAAATTTATGACTTGTACATGTAAATAAAATATA [XGTACX_site762] | 7.15
59 | TGTAGAACTCAATATTGTACATTATATAAAATGGGA [XGTACX_site3857] | 7.13
60 | ATATATATATATTGTACACACATTTATGCATATATA [CACACA_site5738] | 9.2
61 | TTTTTTTGCATTTCATGTACATATATTGAGCTTAAA [XGTACX_site8485] | 7.3
62 | CTTCTTGTAAAATTTGCATGTAATTAAAAGAGAATG [TGCATGCA_site484] | 7.04
63 | GCCTTTTAGTATTTCACACACGTAAATGAGTATATC [CACACA_site4748] | 7.27
64 | TTCCCTATCTTTTCAGTGCATTTTGTTTCCTACCTT [GTGCAC_site9813] | 8.98
65 | ATAAAGAATATAAATACACACTTAAATATAGATTAT [CACACA_site7804] | 6.76
66 | ATTGGTTCCCCTCTCTTTTCAATATATTTTTTTTTT [XGTACX_negctrl_site259] | 6.81

Row | Sequence | gcPBM binding intensity (ln)
67 | GATATAGGGCGTATGTTAATCGTGAAAGAGTGTCTT [GTGCAC_negctrl_site102] | 6.98
68 | TTCAAATGATTTATGTGTACATAAAATTATTTTTTA [XGTACX_site107] | 6.83
69 | AAAAAATTAAAAATCACACATAAATATATATAAAAA [CACACA_site4192] | 7.02
70 | TAATGAAGCTTATGCACACGTTCATTATTTATATTA [CACACA_site3219] | 9.08
71 | ATATTACAGTACAATACATGCATATGGAAAAAAAAA [TGCATGCA_site72] | 7.23
72 | TACTTATATTGAAATGGTACAGATAAAAAAAAAAAA [XGTACX_site1407] | 6.94
73 | TTTTGTAATGTGAATATTTGTATATTATTTGTATAT [CACACA_negctrl_site1677] | 7.03
74 | ACATTCTATCTAAGTACACACATTAATTTTTTTTTT [CACACA_site4106] | 7.34
75 | AATTTACATATATATTGTACATTTATGTATATATAT [XGTACX_site4186] | 7.77
76 | TAATATTTTTTGTGTACACATATATATATATATATA [CACACA_site5504] | 8.94
77 | AATTAGATGGATAAATGTACATATGTGAATATATTT [XGTACX_site85] | 7.16
78 | GTGCCCTTTTTAATAACATGCAAATAACATATTTAT [TGCATGCA_site709] | 8.06
79 | AAAAAAAAAAAAAACACACAAACATCAAATTATTAT [CACACA_site1838] | 7.28
80 | TTTATATTATACGCACTAATATATATATATATATAT [TGCATGCA_negctrl_site47] | 9.7
81 | ATATAACACAAGGGCACACATATACCTTTCCTTTTT [CACACA_site412] | 7.19
82 | ATCTTATATCGTAGAGATTTTTTTTTTTTTTCATTT [XGTACX_negctrl_site140] | 6.7
83 | AATTTCTTCTTAGGGTGTACAATTTGACATAAGGAA [XGTACX_site1773] | 7.43
84 | GTAATATATATTAAGTAATAGTTTATCTTAGGAAAA [TGCATGCA_negctrl_site302] | 6.88
85 | GATCCATTATTGATCCGTACTTATTCATGTTATATA [XGTACX_site5946] | 6.92
86 | TGTTATAAGATTTATGTACACACATATACACCCCTC [CACACA_site8141] | 7.54
87 | TATATATGTATATATACACACAACGGTTATAAATAT [CACACA_site1128] | 7.21
